# Results from the supplement of paper PMC8728848.
# Some of the results follow.
# B1: PX9937F-bfa-516-16-516 (Bacteroides fragilis) (protein)
# chain: LDIDPTSSIADSNYWKTEAQFSTFNVGLHALLRECSFNFFLLGEPRADIYGDVPFGGEATQGMERLPFNTINKENTGISNFAGMYKVINQINLMIAKTKETTVLSEAGKNYYLGEAYGMRAYLYFHLLRSWGDVILYLDYTNGASLDLSNLSKAASPAEEVMKQIKEDITASEKGFGSDYSFKYGRYYWSMAATQMLKGEVYLWSGRQMGGGTADYTTAKTALQSIVSNANVSLQDDFSKVFAYNNKDNSEIIFSIRNAKDEYNMWDDRFRQNLVPQQAYMTSTYCNKEGVSFKDLPEGQLNGLIRLQIRYDLYNKAFRDGDTRKDASMTAVYQKQQDGTVKYIAPFCNKYQGVLLDGASQRSFLNDYPIYRYADCLLLLAEAKALLGEDPTAEINQVRERAYGKEFFEANKATLAYPNDKGDFYTDNKYMSGDEDPLEAILKERMREFMFEGKRWYDLRLLGADYVTKRTSAVATRLLWPINESVLTDNPALKQTPGYQN
# Experiments:
# Experiment in all cases: glycan array binding signal (z-score within array); higher = stronger binding
# Conditions in all cases: glycan notation: IUPAC condensed, linker removed
# [1] = target: Gal(a1-3)Gal(b1-4)GlcNAc(b1-2)Man
# How it was run: (§1)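 From the Consortium for Functional Glycomics database, 3228 arrays were curated, keeping only those whose protein sequence was available. Binding is given as a within-array Z-score averaged across arrays sharing a protein sequence and across linkers. Negative Z-scores can be read as non-binding.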
# [2] = target: Gal(a1-3)Gal(b1-4)GlcNAc(b1-2)Man(a1-3)[Gal(a1-3)Gal(b1-4)GlcNAc(b1-2)Man(a1-6)]Man(b1-4)GlcNAc(b1-4)GlcNAc
# How it was run: as §1
# [3] = target: Gal(a1-3)Gal(b1-4)GlcNAc(b1-3)GalNAc
# How it was run: as §1
# [4] = target: Gal(a1-3)Gal(b1-4)GlcNAc(b1-6)GalNAc
# How it was run: as §1
# [5] = target: Gal(a1-3)Gal(b1-4)[Fuc(a1-3)]GlcNAc
# How it was run: as §1
# [6] = target: Gal(a1-3)Gal(b1-4)[Fuc(a1-3)]GlcNAc(b1-2)Man(a1-3)[Gal(a1-3)Gal(b1-4)[Fuc(a1-3)]GlcNAc(b1-2)Man(a1-6)]Man(b1-4)GlcNAc(b1-4)GlcNAc
# How it was run: as §1
# Gal(a1-3)GalNAc = target: Gal(a1-3)GalNAc
# How it was run: as §1
# [7] = target: Gal(a1-3)[Gal(a1-4)]Gal(b1-4)GlcNAc
# How it was run: as §1
# [8] = target: Gal(a1-4)Gal(b1-3)GlcNAc(b1-2)Man(a1-3)[Gal(a1-4)Gal(b1-3)GlcNAc(b1-2)Man(a1-6)]Man(b1-4)GlcNAc(b1-4)GlcNAc
# How it was run: as §1
# Gal(a1-4)Gal(b1-4)Glc = target: Gal(a1-4)Gal(b1-4)Glc
# How it was run: as §1
# Gal(a1-4)Gal(b1-4)GlcNAc = target: Gal(a1-4)Gal(b1-4)GlcNAc
# How it was run: as §1
# [9] = target: Gal(a1-4)Gal(b1-4)GlcNAc(b1-2)Man(a1-3)[Gal(a1-4)Gal(b1-4)GlcNAc(b1-2)Man(a1-6)]Man(b1-4)GlcNAc(b1-4)GlcNAc
# How it was run: as §1
# [10] = target: Gal(a1-4)Gal(b1-4)GlcNAc(b1-3)Gal(b1-4)Glc
# How it was run: as §1
# Gal(a1-4)GlcNAc = target: Gal(a1-4)GlcNAc
# How it was run: as §1
# Gal(a1-6)Glc = target: Gal(a1-6)Glc
# How it was run: as §1
# Gal(b1-2)Gal = target: Gal(b1-2)Gal
# How it was run: as §1
# Gal(b1-3)Gal = target: Gal(b1-3)Gal
# How it was run: as §1
# Gal(b1-3)Gal(b1-4)GlcNAc = target: Gal(b1-3)Gal(b1-4)GlcNAc
# How it was run: as §1
# Gal(b1-3)GalNAc = target: Gal(b1-3)GalNAc
# How it was run: as §1
# [11] = target: Gal(b1-3)GalNAc(a1-3)[Fuc(a1-2)]Gal(b1-4)Glc
# How it was run: as §1
# [12] = target: Gal(b1-3)GalNAc(a1-3)[Fuc(a1-2)]Gal(b1-4)GlcNAc
# How it was run: as §1
# Gal(b1-3)GalNAc(b1-3)Gal = target: Gal(b1-3)GalNAc(b1-3)Gal
# How it was run: as §1
# [13] = target: Gal(b1-3)GalNAc(b1-3)Gal(a1-4)Gal(b1-4)Glc
# How it was run: as §1
# [14] = target: Gal(b1-3)GalNAc(b1-4)Gal(b1-4)Glc
# How it was run: as §1
# [15] = target: Gal(b1-3)GalNAc(b1-4)[Neu5Ac(a2-3)]Gal(b1-4)Glc
# How it was run: as §1
# Gal(b1-3)GlcNAc = target: Gal(b1-3)GlcNAc
# How it was run: as §1
# [16] = target: Gal(b1-3)GlcNAc(a1-3)Gal(b1-4)GlcNAc
# How it was run: as §1
# [17] = target: Gal(b1-3)GlcNAc(a1-6)Gal(b1-4)GlcNAc
# How it was run: as §1
# Gal(b1-3)GlcNAc(b1-2)Man = target: Gal(b1-3)GlcNAc(b1-2)Man
# How it was run: as §1
# [18] = target: Gal(b1-3)GlcNAc(b1-2)Man(a1-3)[Gal(b1-3)GlcNAc(b1-2)Man(a1-6)]Man(b1-4)GlcNAc(b1-4)GlcNAc
# How it was run: as §1
# [19] = target: Gal(b1-3)GlcNAc(b1-2)Man(a1-3)[Gal(b1-3)GlcNAc(b1-2)Man(a1-6)]Man(b1-4)GlcNAc(b1-4)[Fuc(a1-6)]GlcNAc
# How it was run: as §1
# [20] = target: Gal(b1-3)GlcNAc(b1-2)Man(a1-3)[GlcNAc(b1-4)][Gal(b1-3)GlcNAc(b1-2)Man(a1-6)]Man(b1-4)GlcNAc(b1-4)GlcNAc
# How it was run: as §1
# [21] = target: Gal(b1-3)GlcNAc(b1-2)[Gal(b1-3)GlcNAc(b1-6)]Man(a1-6)[Gal(b1-3)GlcNAc(b1-2)Man(a1-3)]Man(b1-4)GlcNAc(b1-4)GlcNAc
# How it was run: as §1
# [22] = target: Gal(b1-3)GlcNAc(b1-3)Gal(b1-3)GlcNAc
# How it was run: as §1
# [23] = target: Gal(b1-3)GlcNAc(b1-3)Gal(b1-4)Glc
# How it was run: as §1
# [24] = target: Gal(b1-3)GlcNAc(b1-3)Gal(b1-4)GlcNAc
# How it was run: as §1
# [25] = target: Gal(b1-3)GlcNAc(b1-3)Gal(b1-4)GlcNAc(b1-2)Man(a1-3)[Gal(b1-3)GlcNAc(b1-3)Gal(b1-4)GlcNAc(b1-2)Man(a1-6)]Man(b1-4)GlcNAc(b1-4)GlcNAc
# How it was run: as §1
binder,measurement,setting,value
B1,glycan array binding signal (z-score),[1],-0.213
same,glycan array binding signal (z-score),[2],0.13
same,glycan array binding signal (z-score),[3],0.853
same,glycan array binding signal (z-score),[4],0.066
same,glycan array binding signal (z-score),[5],-0.34
same,glycan array binding signal (z-score),[6],0.064
same,glycan array binding signal (z-score),Gal(a1-3)GalNAc,-0.268
same,glycan array binding signal (z-score),[7],0.006
same,glycan array binding signal (z-score),[8],-0.253
same,glycan array binding signal (z-score),Gal(a1-4)Gal(b1-4)Glc,-0.235
same,glycan array binding signal (z-score),Gal(a1-4)Gal(b1-4)GlcNAc,-0.077
same,glycan array binding signal (z-score),[9],0.21
same,glycan array binding signal (z-score),[10],-0.248
same,glycan array binding signal (z-score),Gal(a1-4)GlcNAc,-0.107
same,glycan array binding signal (z-score),Gal(a1-6)Glc,-0.074
same,glycan array binding signal (z-score),Gal(b1-2)Gal,-0.196
same,glycan array binding signal (z-score),Gal(b1-3)Gal,-0.15
same,glycan array binding signal (z-score),Gal(b1-3)Gal(b1-4)GlcNAc,-0.229
same,glycan array binding signal (z-score),Gal(b1-3)GalNAc,-0.035
same,glycan array binding signal (z-score),[11],-0.339
same,glycan array binding signal (z-score),[12],-0.198
same,glycan array binding signal (z-score),Gal(b1-3)GalNAc(b1-3)Gal,-0.083
same,glycan array binding signal (z-score),[13],-0.322
same,glycan array binding signal (z-score),[14],-0.093
same,glycan array binding signal (z-score),[15],-0.231
same,glycan array binding signal (z-score),Gal(b1-3)GlcNAc,-0.207
same,glycan array binding signal (z-score),[16],0.755
same,glycan array binding signal (z-score),[17],-0.245
same,glycan array binding signal (z-score),Gal(b1-3)GlcNAc(b1-2)Man,-0.2
same,glycan array binding signal (z-score),[18],-0.047
same,glycan array binding signal (z-score),[19],0.833
same,glycan array binding signal (z-score),[20],0.179
same,glycan array binding signal (z-score),[21],-0.137
same,glycan array binding signal (z-score),[22],-0.041
same,glycan array binding signal (z-score),[23],-0.072
same,glycan array binding signal (z-score),[24],-0.402
same,glycan array binding signal (z-score),[25],-0.167
